# Among all 420,000 compounds or so, about 64,000 (15%) were called active. The inconclusive results got no clear call from the source; some entries with a clear call stand among them for comparison. Calls come from the whole dose curve; as a rule, active = well fitted inhibition curve with a large enough effect; inconclusive = small, poorly fitted or top-dose-only effect; inactive = flat fitted curve, though single readings scatter. No potency is given beside an inconclusive call; the fits are too rough.
# Test: qHTS for Inhibitors of human tyrosyl-DNA phosphodiesterase 1 (TDP1): qHTS in cells in absence of CPT; note: nearly all actives have a fitted effect of over 55% in size
# Conditions: DT40 Tdp1-/- hTDP1 cells, no CPT, ATP luminescence, 48 h; activity change, negative = growth inhibition: at 46.2 µM (top of the series) unless noted
# In short: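 No-CPT arm: Tdp1-/-;hTDP1 DT40 cells (400/well) plus compounds, incubated ≥48 hr at 37 °C. Readout CellTiter-Glo luminescence.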
# % is set by controls: 0 for no effect and ±100 for the full control effect; potency is the fitted concentration of half-maximal effect; tags give direction and shape of the fitted curve.
Structure (SMILES),Potency,"activity change, negative = growth inhibition"
COc1ccc(CCNC(=S)N2CCC(C(=O)c3ccc(F)cc3)CC2)cc1OC,"inconclusive [inhibitor, single point]",–
CCOc1ccc(NC(=O)c2ccc(F)cc2F)cc1,–,inactive: -28.2%
Cc1ccc(-c2cc(C(=O)NCc3cccnc3)no2)cc1,–,inconclusive: -32.8% [inhibitor]
CC(=O)N1CCC(C(=O)Nc2ccc(S(=O)(=O)N3CCCC(C)C3)cc2)CC1 (centres undefined),"inconclusive [inhibitor, partial curve]",–
Cc1cc2nn(-c3ccc(F)cc3)nc2cc1NC(=O)c1cccc2c(Cl)cccc12,"inconclusive [inhibitor, partial curve]",–
O=C(CCNC(=O)c1ccc(Cl)cc1)NNC(=O)c1ccc(F)cc1,–,inactive: 16.2%
Cc1cc(C)cc(OCC(=O)OCC(=O)c2cc(C)n(C3CC3)c2C)c1,–,inactive: -4.17%
CCOC(=O)c1ccc2c(c1)N(Cc1ccc(F)cc1Cl)C(=O)c1ccccc1S2(=O)=O,"inconclusive [inhibitor, single point]",–
Cc1ccc(CN2CC(=O)N3[C@H]4c5cc(C)ccc5OC[C@@H]4[C@H](c4ccccc4)[C@]3(C)C2=O)cc1,"inconclusive [inhibitor, single point]",–
NC(=O)COC(=O)c1ccccc1Nc1ccc(SC(F)F)cc1,"inconclusive [inhibitor, single point]",–
CCC(C)(C)C1CCC2(CC1)NC(=O)N(CC(=O)Nc1cc(C(F)(F)F)ccc1N1CCOCC1)C2=O (centres undefined),"inconclusive [inhibitor, single point]",–
CCn1c(C)c(C)c2cc(C(=O)NCc3ccc(F)cc3)ccc21,"inconclusive [inhibitor, single point]",–
COc1ccccc1C(CNC(=O)CCNC(=O)c1ccccc1Cl)N1CCCC1 (centres undefined),–,inactive: 1.91%
Cc1cc2nc3c(=O)n(C4CCCCC4)c(=O)[nH]c3nc2cc1N,–,inactive: -10.2%
COc1ccc(-n2cc(-c3ccccc3)c3c(Nc4ccc(OC)c(OC)c4)ncnc32)cc1,"inconclusive [inhibitor, single point]",–
CCc1ccc2nc(NC(=O)c3ccc(N4C(=O)CCC4=O)cc3)sc2c1,–,inactive: -11.4%
CCN(CC)CC#CCC(O)(c1ccccc1)c1ccc(Br)cc1 (centres undefined),"inconclusive [inhibitor, partial curve, poor fit]",–
COc1cc(OC)c(NC(=O)Nc2cccc(OCc3cc(=O)n4ccccc4n3)c2)cc1Cl,active: 13 µM,–
CC12CCCC[C@@H]1CCC1C2CCC2(C)C1CC[C@@]2(O)CNCCO (some centres undefined),"inconclusive [inhibitor, single point]",–
COc1cc(NC(=O)c2ccccc2)c(OC)cc1NC(=O)Cc1ccc(Br)cc1,"inconclusive [inhibitor, partial curve, poor fit]",–
CCOC(=O)CC(=O)CSc1nc2ccsc2c(=O)n1Cc1ccccc1,"inconclusive [inhibitor, single point]",–
CNC(=S)N1N=C(c2ccccc2)CC1c1ccccc1Cl (centres undefined),"inconclusive [inhibitor, single point]",–

Structure (SMILES),Potency,"activity change, negative = growth inhibition"
Cc1cc(C)n2nc(C(=O)NCc3cccc(C(F)(F)F)c3)nc2n1,–,inactive: -0.0803%
Cc1noc(-c2ccc(NC(C)c3ccccc3)c([N+](=O)[O-])c2)n1 (centres undefined),active: 23.1 µM,–
NS(=O)(=O)c1cccc(Nc2nc3ccccc3nc2NS(=O)(=O)c2ccc(Cl)cc2)c1,–,inactive: -17.4%
CSc1nnc(Cn2c(=O)sc3ccccc32)n1-c1cccc(Cl)c1,"inconclusive [inhibitor, single point]",–
CCc1ccc2c(c1)C(c1ccc([N+](=O)[O-])cc1)=NNC(c1ccc(C)cc1)=N2,"inconclusive [inhibitor, single point]",–
CC(=O)N1c2ccc(S(=O)(=O)N3CCC(C(=O)N4CCN(c5ccccc5F)CC4)CC3)cc2CC1C (centres undefined),"inconclusive [inhibitor, partial curve]",–
COc1ccc(C(CCNCc2ccccc2F)c2ccc(F)cc2)cc1 (centres undefined),active: 13 µM,–
O=C(CCC(=O)c1cccs1)Nc1ncccc1O,–,inactive: 7.38%
Cc1ccnc2nc(C(=O)OCC(=O)c3c[nH]c4ccccc34)nn12,–,inactive: -11.5%
Cc1ccc(CNC(=O)c2nc(SCc3ccccc3C)ncc2Cl)cc1,"inconclusive [inhibitor, partial curve]",–
Cc1cc2[nH]c(=O)c(=O)[nH]c2cc1S(=O)(=O)Nc1cccc(Cl)c1,–,inactive: -0.719%
COCCCN1C(=O)C(CC(=O)NCc2ccco2)CC(C(=O)N(C)C)=C1C (centres undefined),–,inactive: 3.14%
Cc1nc2nc[nH]n2c(=O)c1NC(=O)CCc1ccccc1,–,inactive: -4.03%
CC1(OC(=O)CCc2ccccc2)C(=O)C=C2C=C(c3ccc(C#N)cc3)N(Cc3ccccc3)C=C2C1=O (centres undefined),"inconclusive [inhibitor, partial curve, poor fit]",–
Cc1cc(=O)[nH]c(SCC(=O)c2ccc(F)c(C)c2)n1,"inconclusive [inhibitor, single point]",–
O=C(Nc1ncc([N+](=O)[O-])s1)c1ccc2c(c1)OCO2,active: 18.4 µM,–
Cc1nc(SCc2cccc(Oc3ccccc3)c2)n[nH]1,"inconclusive [inhibitor, partial curve]",–
Cc1ccc(N2CC(C(=O)N3CCC(c4nc5ccccc5[nH]4)CC3)CC2=O)cc1C (centres undefined),"inconclusive [inhibitor, single point]",–
O=C(N/N=C/c1ccc(O)cc1)/C(=C/c1ccc([N+](=O)[O-])cc1)NC(=O)c1ccccc1,–,inactive: -11.1%
Cc1cc(Cl)ccc1OCC(=O)N(Cc1ccco1)C1CCS(=O)(=O)C1 (centres undefined),–,inconclusive: -32% [inhibitor]
CC1(c2ccccc2)CC(C)(C)N(C(=O)c2cccc(Cl)c2)c2ccccc21 (centres undefined),"inconclusive [inhibitor, single point]",–
O=C1OC(c2ccccc2)(c2ccccc2)c2ccccc21,"inconclusive [inhibitor, single point]",–
